The text below walks through data of paper PMC10726135.

The other results are listed elsewhere or left out. At the low end of the ranking the order means little. Measured with an extract: partners may take part in the binding.

The target of this test is T1, HNF4alpha8 (COS-7 nuclear extract) (UniProt P41235-5).
T1 sequence: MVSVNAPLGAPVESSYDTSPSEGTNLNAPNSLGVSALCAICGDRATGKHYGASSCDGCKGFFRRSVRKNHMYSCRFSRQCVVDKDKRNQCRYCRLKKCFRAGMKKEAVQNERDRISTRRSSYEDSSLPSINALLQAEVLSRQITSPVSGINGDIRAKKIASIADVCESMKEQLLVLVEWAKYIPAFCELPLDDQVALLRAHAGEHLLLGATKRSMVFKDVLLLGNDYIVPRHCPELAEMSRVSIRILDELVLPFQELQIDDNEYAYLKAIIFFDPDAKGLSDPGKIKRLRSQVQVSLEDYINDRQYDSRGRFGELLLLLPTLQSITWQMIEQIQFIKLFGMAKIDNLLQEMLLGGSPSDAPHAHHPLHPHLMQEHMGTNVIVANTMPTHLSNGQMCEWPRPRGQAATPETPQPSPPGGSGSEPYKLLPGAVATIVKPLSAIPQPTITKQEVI
Description: protein-binding microarray. Conditions: COS-7 nuclear extract on double-stranded Agilent 4x180k PBM; binding buffer, salt, pH and temperature not given; high values mean tight binding; double strand, one strand shown; sequences stand for … in …GCCTAGGGAGATTAGAGTATCGGTCGA
On to GTTCACCAGGAAGCAAGACAATGCACTCAT, for which the binding signal (log2 normalized intensity) is -1.45.

As to GCACAGCCTCCCTGTGGGGGAGGTGCAGAG, the binding signal (log2 normalized intensity) is -1.35.

With GTCAGCCCTGGTCCAGGCCATGCAACAGCC, the binding signal (log2 normalized intensity) was -1.27.

In the case of CAGGACCACACATTCCATTACTGCAGAGGC, the binding signal (log2 normalized intensity) was -1.31.

As to AGATACTGAACCTTGCACTATTGACCCAGT, the binding signal (log2 normalized intensity) was 4.44.

TTGGTGGGAGGAGGGGGGAGGGTCGGCAAC: the binding signal (log2 normalized intensity) is -1.4.

With CCCTGGGGTAATAAAAGTGTACAAAGCACA, the binding signal (log2 normalized intensity) was -0.451.

In the case of AAATGCCAATAGTGGCTTTGTTGATAACAA, the binding signal (log2 normalized intensity) was -0.978.

Consider TTAATGAAATACAGTAGACTTTTTTTTTCT, for which the binding signal (log2 normalized intensity) was found to be 0.548.

On to CACAGGTGACCTCTGGCCACTGCAGGGAGG, for which the binding signal (log2 normalized intensity) worked out at 2.88.

For GTGTACTGAGCAGGGTCCAACCCACAGGGG, the binding signal (log2 normalized intensity) stood at 2.15.

For CAATCAGTGTGTTGACATTTGAACCCAACC, the binding signal (log2 normalized intensity) turned out to be 4.71.

Regarding GGGTCATCAGGGGTCCTGGCAGCACCTGAA, the binding signal (log2 normalized intensity) is -1.04.

Turning to ATTGCGGGCTGGTTGGCACGCTTAGGGAAC, the binding signal (log2 normalized intensity) is -1.3.

Turning to AGGACTTGCGGTGTTACACTTGTTTAAATG, the binding signal (log2 normalized intensity) was 1.28.

On to ATATTGACATTCCAGCCTCCAGCTACTCAC, for which the binding signal (log2 normalized intensity) was -1.27.

Consider AGTTACTTAAGCCATCTGCTGCCTCAGTTT, for which the binding signal (log2 normalized intensity) was -1.38.

In the case of TTCTCAGGCATCTCTGGGGGTCAGAAGTCC, the binding signal (log2 normalized intensity) came to 5.38.

As to CCTAGCAAACAATGAGGACGTGTGTGTTCT, the binding signal (log2 normalized intensity) was 1.6.

AACATGGGCTTAAGACAAGAATGTGAGATA: the binding signal (log2 normalized intensity) was -1.32.

In the case of CAAAGGTCACTTAGTCCCTAAGTCTTTCAA, the binding signal (log2 normalized intensity) was 3.68.

Turning to TTCCTGGAAATCCCGAAATAGAGCCAAACA, the binding signal (log2 normalized intensity) is -1.34.

On to TATAGGGGAGGTCCTAAAGAGGATATCCTG, for which the binding signal (log2 normalized intensity) is -1.16.

As for AGCCCAGTCTTGGCCCCACCGGTCACGACC, the binding signal (log2 normalized intensity) was determined as 1.06.

For the sequence CTGCCTAACAGGAGTGTTTTTTTCACCTGG, the binding signal (log2 normalized intensity) was 0.868.

With AAGGTGCTACCACGAGAGTAGAGAGTTGTT, the binding signal (log2 normalized intensity) is -1.03.

As to CTTTTCTGCTTTTGGAATTTGACCTCATTT, the binding signal (log2 normalized intensity) turned out to be 7.55.

For the sequence TTTGTTCATATCGGCTCCATCTAGCAGCCC, the binding signal (log2 normalized intensity) is -1.31.

As for GGCAAATTGAAACCTTGCGCAAGTCCCAGA, the binding signal (log2 normalized intensity) is -1.33.

For the sequence ACAAAATACAAGTCGTAAAGACCTTGCTGA, the binding signal (log2 normalized intensity) was -1.17.

Regarding ACCTGCCAAAGAAGAAAACAATGACCTCTG, the binding signal (log2 normalized intensity) was determined as 4.18.

Turning to ACCTTTTTTTCATGCAAATTTCCGTGTCGA, the binding signal (log2 normalized intensity) amounted to 1.44.

Take AGCAGTTCACACTCCCACCAGCATGGTGAT: the binding signal (log2 normalized intensity) is -1.37.

In the case of GAGAGTAAGTTTCTGTCTCACCTGTAAATG, the binding signal (log2 normalized intensity) is -0.263.

Take CTGGAATGATACGCCGGCCAATCCGGCTGG: the binding signal (log2 normalized intensity) is -1.1.

With AGGATACCTAGTAGGCACAAAGGTGCAAAG, the binding signal (log2 normalized intensity) worked out at 0.717.

As for AGAGAAAGGGTCAATGTGATCAGGTGTGGG, the binding signal (log2 normalized intensity) stood at 0.791.

For the sequence ATCACCATCAGATCTGGGTGTGCCATTCTT, the binding signal (log2 normalized intensity) was found to be 0.839.

For AAATCTCTCTGGTCAAAGGGTAAAGATTAT, the binding signal (log2 normalized intensity) was 3.14.

CAAAGTCCAAAGCCTCATCTGAGATAAGGC: the binding signal (log2 normalized intensity) stood at 2.64.

Regarding AAGTGACCCTCAGACACACAGTCCACAGGC, the binding signal (log2 normalized intensity) came out at 0.576.

Regarding CAGGTTCATTCTTTAAGTGTGGGGTGACTG, the binding signal (log2 normalized intensity) worked out at 1.47.

On to AACATGCTGCAGGCATTTCTGGAATTCTCT, for which the binding signal (log2 normalized intensity) is -1.41.

For the sequence GCAGAGGTCAATGTCCACACCCCAGTTTCA, the binding signal (log2 normalized intensity) came to 5.24.

As for GTCACAGTATTCATTCCCCTAGTATATTGG, the binding signal (log2 normalized intensity) is 1.96.

TTTTGATTGCTTAGGCTCTTGTTATGAAAC: the binding signal (log2 normalized intensity) was found to be 0.557.

As for GCATGCCCCGCGCCGCGTCCCTTCCCCCGG, the binding signal (log2 normalized intensity) was 3.62.

As to TGTGGAATGGCAACATGTGGGCAAATAGGA, the binding signal (log2 normalized intensity) was -1.05.

On to CTGTCTGCTGAGGATGTGGCCCCGAGATAA, for which the binding signal (log2 normalized intensity) turned out to be 2.25.

Regarding CCCAAGATGGATTGGGTCCACACATTCCTA, the binding signal (log2 normalized intensity) was found to be 0.829.

With TCTGATTGGTTGGAGAAAGCAGCCAACCAG, the binding signal (log2 normalized intensity) was -1.29.

For the sequence CAGTATCAAAGTCCCCAGATAAGACAAAGT, the binding signal (log2 normalized intensity) was 2.22.

Turning to TCAGCCCACTTCCTACCATCAAAGGTTGTC, the binding signal (log2 normalized intensity) was determined as 0.655.

As to CAGTAACCTAAGTCAGGAAACTGACTCAAC, the binding signal (log2 normalized intensity) was -1.4.

Consider GAGAAGACATAGTTTTTGCCCTTAAGCAGC, for which the binding signal (log2 normalized intensity) worked out at 1.93.

Take GGGGCCCAGGTCGAAGTTTATGTTTACTGT: the binding signal (log2 normalized intensity) came out at 1.26.

With CTTTTGGAATCCCCATCTCACCATAAACTC, the binding signal (log2 normalized intensity) stood at 1.78.

In the case of CAAAGATTGTGAGACAAGAGAAGAGAAAAA, the binding signal (log2 normalized intensity) was -1.29.

Consider TTAAGACTCAAAGTTCAGTCGAATTTGGTT, for which the binding signal (log2 normalized intensity) was found to be 2.33.

As to GGTGAACTTTGAGACTATCCTTGGACCGCA, the binding signal (log2 normalized intensity) was 3.32.

With CTCTGGGGGAACCTCTGGTCAAATTCCAAC, the binding signal (log2 normalized intensity) was found to be 3.23.

Regarding CTTTGCCCTTTGGGAAGGGGCAAAAGAGAG, the binding signal (log2 normalized intensity) was 2.52.

With TGAAAAGATAGCTTGAGGCCAGCTCATAGG, the binding signal (log2 normalized intensity) was -1.18.

Take CACATTCGAAGTTTTGCTCCTTTGAGCACT: the binding signal (log2 normalized intensity) was determined as 1.18.

As to GGACAAAGTTCCCCGGGCAGCTGTGTTTGC, the binding signal (log2 normalized intensity) worked out at 0.702.

Consider CTGAGAGACTTTATCCGTATAACAAGACAG, for which the binding signal (log2 normalized intensity) is -1.2.

GAAAGAGGGTGAAAGTACAGTGATGTTTGT: the binding signal (log2 normalized intensity) was found to be 1.86.

Regarding CCTTTTTCTGTTCAATGGTGCTTTTGATAT, the binding signal (log2 normalized intensity) is 2.23.

Turning to GTGCCATGCCAAAGAAGCAAAGGTTGGCTA, the binding signal (log2 normalized intensity) came to 0.147.

Turning to TCCCAAGTAGCTCATTTATTATTTGTCTGG, the binding signal (log2 normalized intensity) worked out at 1.54.

Consider ACACACCGTTAGCCAATATTTGCAAGGCTG, for which the binding signal (log2 normalized intensity) is -1.2.

Consider GATCATAAATGCCTCCCCCTCTTTATCTCC, for which the binding signal (log2 normalized intensity) amounted to 3.63.

Turning to GACATAAATCACATTGTTAGCATAGCCTAT, the binding signal (log2 normalized intensity) is -0.813.
